Experimental data published in PubChem BioAssay AID588591 (National Center for Advancing Translational Sciences (NCATS), 2011).
The campaign covered roughly 390,000 compounds. About 4,700 (1.2%) were called active. Inconclusive means that the source gave no clear call. Such entries were picked first, then a sample of the others. Calls follow the shape of the dose curve; as a rule, active = well fitted inhibition curve with a large enough effect; inconclusive = small, poorly fitted or top-dose-only effect, or another doubt; inactive = no such curve, though single readings can be large or run the other way. Potencies beside an inconclusive call are fits to weak or partial responses and may not hold up.
Potency is read from the fitted curve at half-maximal effect; tags tell the direction and shape of the fitted curve.

The compounds below were run against DNA polymerase eta (Homo sapiens) (UniProt Q9Y253) (assay: qHTS for Inhibitors of Polymerase Eta). Details: recombinant Pol eta, fluorescent DNA replication assay; series mostly up to 114 µM.
UniProt Q9Y253, sequence (Q9Y253 whole entry, looked up): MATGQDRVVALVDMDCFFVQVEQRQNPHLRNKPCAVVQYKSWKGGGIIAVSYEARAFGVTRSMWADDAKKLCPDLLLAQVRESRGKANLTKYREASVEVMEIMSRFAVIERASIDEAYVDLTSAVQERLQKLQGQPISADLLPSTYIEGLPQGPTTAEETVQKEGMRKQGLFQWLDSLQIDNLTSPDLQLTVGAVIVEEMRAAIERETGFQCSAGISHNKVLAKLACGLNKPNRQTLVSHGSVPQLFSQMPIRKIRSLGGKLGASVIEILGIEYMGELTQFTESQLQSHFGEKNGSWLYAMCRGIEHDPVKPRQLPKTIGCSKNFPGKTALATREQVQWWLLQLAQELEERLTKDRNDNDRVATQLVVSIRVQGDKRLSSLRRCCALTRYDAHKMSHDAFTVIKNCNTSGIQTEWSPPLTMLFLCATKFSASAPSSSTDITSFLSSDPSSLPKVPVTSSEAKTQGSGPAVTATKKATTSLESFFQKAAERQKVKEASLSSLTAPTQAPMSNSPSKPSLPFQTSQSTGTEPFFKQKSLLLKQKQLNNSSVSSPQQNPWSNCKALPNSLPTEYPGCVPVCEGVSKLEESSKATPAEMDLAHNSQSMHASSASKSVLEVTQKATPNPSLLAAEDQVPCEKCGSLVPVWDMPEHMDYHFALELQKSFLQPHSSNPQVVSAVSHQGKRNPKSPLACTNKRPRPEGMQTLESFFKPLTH
Procedure, shortened: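 Pol eta (10 nM) was preincubated with compounds for 15 min at room temperature, after which fluorescent replication substrate (50 nM final) was added to start the reaction. Fluorescence was read kinetically at 0 and 10 min.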
In the case of `Cc1ccccc1C(=O)OCC(=O)Nc1cccc(S(=O)(=O)NC2=NCCC2)c1`, the Potency is reported as inconclusive: 89.1 µM [inhibitor, partial curve, poor fit].
`CN1/C(=C\C=C2/C(=O)Oc3ccccc3C2=O)C(C)(C)c2ccccc21` was tested, and the Potency was active: 89.1 µM.
In the case of `CN(C)c1cccc2c(S(=O)(=O)Nc3ccccn3)cccc12`, the Potency is reported as inconclusive: 7.94 µM [inhibitor, full curve].
With `O=C1/C(=C/c2cccnc2)Sc2ccccc21` the Potency was inconclusive: 17.8 µM [inhibitor, partial curve, poor fit].
With `COc1ccc(OCC(=O)NCc2nc(-c3ccccc3)no2)cc1` the Potency was inconclusive: 39.8 µM [inhibitor, partial curve, poor fit].
For `O=C(CN1CCN(S(=O)(=O)c2ccc(Cl)cc2)CC1)c1ccc(O)c(O)c1`, the Potency was inconclusive: 8.91 µM [inhibitor, full curve, poor fit].
In the case of `O=C(CCN1C(=O)C2CC=CCC2C1=O)Nc1cc(C(F)(F)F)ccc1N1CCCC1` (stereo not given), the Potency is reported as inconclusive: 3.55 µM [inhibitor, partial curve, poor fit].
With `C=CCn1c(SCC(=O)c2ccccc2)nnc1-c1ccc2c(c1)OCO2` the Potency was “inactive”.
For `Cc1ccc(/C=c2\sc3nc(-c4cccnc4)nn3c2=O)cc1`, the Potency was active: 10 µM.
In the case of `O=C(N/N=C/c1ccccc1O)NC12CC3CC(CC(C3)C1)C2`, the Potency is reported as “inactive”.
`Cc1ccc(S(=O)(=O)N[C@@H](Cc2ccccc2)C(=O)N2CCC[C@@H]2C(=O)O)cc1` was tested, and the Potency was “inactive”.
`Cc1ccc2c(CC(=O)NCC3COc4ccccc4O3)coc2c1` (stereo not given) was tested, and the Potency was inconclusive: 31.6 µM [inhibitor, single point].
`O=C(CCl)N1CCN(S(=O)(=O)c2ccc3ccccc3c2)CC1` was tested, and the Potency was inconclusive: 50.1 µM [inhibitor, partial curve, poor fit].
With `COc1cc(/C=C(\C#N)c2[nH]nc(N)c2C#N)cc(OC)c1O` the Potency was inconclusive: 22.4 µM [inhibitor, partial curve, poor fit].
In the case of `CCc1ccc2[nH]c(=O)c(C(c3nnnn3Cc3ccco3)N3CCC(C)CC3)cc2c1` (stereo not given), the Potency is reported as inconclusive: 39.8 µM [inhibitor, partial curve, poor fit].
For `CC(=O)c1ccc(N2CCN(C(=O)NCc3noc4ccc(C)cc34)CC2)cc1`, the Potency was inconclusive: 100 µM [inhibitor, partial curve, poor fit].
With `CCOC(=O)/C(C#N)=C/c1cccc(C)c1` the Potency was “inactive”.
`COc1ccc(N=C2S/C(=C\c3ccc(OC(C)C(=O)O)c(OC)c3)C(=O)N2CCc2c[nH]c3ccccc23)cc1` (stereo not given) was tested, and the Potency was active: 31.6 µM.
For `CC(=O)c1sc(N/N=C\c2cccc(Br)c2)nc1C`, the Potency was inconclusive: 25.1 µM [inhibitor, partial curve, poor fit].
`CN(C)c1ccc(/C=C/c2ccc3c4ccccc4ccc3[n+]2-c2ccccc2)cc1` was tested, and the Potency was active: 22.4 µM.
In the case of `CCOC(=O)c1noc2ncnc(N3CCN(c4ccccc4OC)CC3)c12`, the Potency is reported as “inactive”.
`O=C(c1cc2ccccc2o1)N(Cc1ccco1)Cc1cccs1` was tested, and the Potency was inconclusive: 3.16 µM [inhibitor, partial curve, poor fit].
In the case of `Cc1sc2nc3ccc(NCc4ccco4)nn3c(=O)c2c1C`, the Potency is reported as inconclusive: 14.1 µM [inhibitor, partial curve].
In the case of `CC(NC(=O)COC(=O)/C=C/c1ccc([N+](=O)[O-])cc1)c1ccccc1` (stereo not given), the Potency is reported as “inactive”.
`Cc1nnc(N/N=C/c2cccc(OCc3ccc(Cl)c(Cl)c3)c2)n1N` was tested, and the Potency was inconclusive: 28.2 µM [inhibitor, partial curve, poor fit].
In the case of `CCOc1ccc(-n2c(C)cc(C(=O)CCl)c2C)cc1`, the Potency is reported as inconclusive: 100 µM [inhibitor, single point].
In the case of `O=c1cc(-c2ccccc2)oc2cc(O)cc(O)c12`, the Potency is reported as “inactive”.
`COc1ccc(CNC(=O)CCNC(=O)N2CCn3c2nc2ccccc23)cc1` was tested, and the Potency was inconclusive: 89.1 µM [inhibitor, single point].
For `N#CCC(=O)Nc1ccc(C(=O)OCC(=O)NC(=O)Nc2ccc3c(c2)OCCO3)cc1`, the Potency was active: 44.7 µM.
With `N=C1/C(=C/c2cccn2-c2ccc([N+](=O)[O-])cc2)C(=O)N=C2SC=CN12` the Potency was inconclusive: 15.8 µM [inhibitor, partial curve, poor fit].
`O=C(C1COc2ccccc2O1)N1CCN(c2ccc([N+](=O)[O-])cc2)CC1` (stereo not given) was tested, and the Potency was inconclusive: 28.2 µM [inhibitor, single point].
For `CCCn1nc(C(=O)OCC(=O)c2ccc3c(c2)NC(=O)CO3)c2ccccc2c1=O`, the Potency was inconclusive: 15.8 µM [inhibitor, partial curve, poor fit].
For `CNc1ccccc1C(=O)OCC(=O)c1ccccc1`, the Potency was inconclusive: 79.4 µM [inhibitor, partial curve, poor fit].
With `O=C1c2cccnc2C(=O)N1c1cccc(-c2nc3ccccc3o2)c1` the Potency was inconclusive: 39.8 µM [inhibitor, partial curve, poor fit].
With `Cc1cccc(NC(=O)CSc2nc3[nH]c(=O)cc(O)c3s2)c1` the Potency was inconclusive: 20 µM [inhibitor, partial curve, poor fit].
With `CCCN(C(=O)/C=C/c1ccc(S(=O)(=O)N(CC)CC)cc1)C1CCS(=O)(=O)C1` (stereo not given) the Potency was inconclusive: 0.562 µM [inhibitor, full curve, poor fit].
In the case of `OC(CNCCc1ccc(C(F)(F)F)cc1)COC(c1ccccc1)c1ccccc1` (stereo not given), the Potency is reported as inconclusive: 44.7 µM [inhibitor, partial curve, poor fit].
With `CNc1nc(N)c(C(=O)Nc2cc(C)on2)s1` the Potency was inconclusive: 50.1 µM [inhibitor, partial curve, poor fit].
`N#CCC(=O)N1CC2(CC(c3cccc(NC(=O)COc4ccc(Cl)cc4)c3)=NO2)C[C@@H]1C(N)=O` (stereo not given in full) was tested, and the Potency was “inactive”.
With `CCN(CC)CCCC(C)n1c2nc(=O)[nH]c(=O)c-2nc2cc(Cl)ccc21` (stereo not given) the Potency was active: 31.6 µM.
For `Cc1cccc(NC(=O)c2ccc(S(=O)(=O)N3CCCCC3C)cc2)n1` (stereo not given), the Potency was inconclusive: 89.1 µM [inhibitor, partial curve, poor fit].
In the case of `CC(C)c1ccc(Nc2nnc(SCC(=O)c3nnc(-c4ccccc4)o3)s2)cc1`, the Potency is reported as active: 15.8 µM.
With `COc1ccc(C)cc1NC(=O)c1cc(S(=O)(=O)N2CCOCC2)cn1C` the Potency was inconclusive: 100 µM [inhibitor, partial curve, poor fit].
In the case of `COc1ccc(NC(=O)CC(C)=O)c(OC)c1`, the Potency is reported as “inactive”.
In the case of `CC(C)(C)C(=O)OCc1nc(-c2ccc(O)c(O)c2)cs1`, the Potency is reported as active: 14.1 µM.
For `Cc1ccc(C)c(N2CCN(C(=O)c3cc4c(C)nc5ccccc5c4o3)CC2)c1`, the Potency was inconclusive: 44.7 µM [inhibitor, partial curve, poor fit].
With `Cc1ccc(CNC(=O)CN(C)C2=NS(=O)(=O)c3ccccc32)cc1` the Potency was inconclusive: 89.1 µM [inhibitor, single point].
For `COc1ccc(OC)c(N=Nc2c(O)c3ccccc3[nH]c2=O)c1`, the Potency was active: 39.8 µM.
`CCNC(=O)c1c(NC(=O)Cc2coc3ccc(CC)cc23)sc2c1CCCC2` was tested, and the Potency was “inactive”.
`Cc1cccc(CNC(=O)C2CCC(=O)N(CCCc3ccccc3)C2)c1` (stereo not given) was tested, and the Potency was “inactive”.
In the case of `Cc1ccc(Nc2nc(-c3ccc(C)cc3)c(CC(=O)O)s2)cc1`, the Potency is reported as “inactive”.
With `CSc1nncc(/C(C)=N\Nc2cccc(C)c2)n1` the Potency was inconclusive: 10 µM [inhibitor, partial curve].
In the case of `CC(=O)c1ccc(-c2nc3c4ccccc4ccn3c2C(C)=O)o1`, the Potency is reported as inconclusive: 28.2 µM [inhibitor, partial curve, poor fit].
For `Cc1c(C(=O)O)c(O)cc2c1C(=O)c1c(O)c([C@@H]3O[C@H](CO)[C@@H](O)[C@H](O)[C@H]3O)c(O)c(O)c1C2=O`, the Potency was inconclusive: 50.1 µM [inhibitor, partial curve].
In the case of `COc1c(-c2ccccc2)oc2c(ccc3occc32)c1=O`, the Potency is reported as “inactive”.
`CCOc1ccc(C(=O)Nc2cc(NC(=O)c3ccc(OCC)c(Cl)c3)cc(C(=O)O)c2)cc1Cl` was tested, and the Potency was active: 31.6 µM.
For `Cc1ccc(Cn2c(C)nc3c(c2=O)c2nc4ccccc4nc2n3Cc2ccco2)cc1`, the Potency was active: 22.4 µM.
In the case of `CCCCN(C(=O)c1cc(CC)c(C)s1)c1c(N)n(CCC)c(=O)[nH]c1=O`, the Potency is reported as inconclusive: 1.58 µM [inhibitor, full curve, poor fit].
In the case of `COc1ccc(CN(C)CCCn2cnc3c(SC)ncnc32)cc1OC`, the Potency is reported as “inactive”.
In the case of `COc1ccc2c(c1)[n+](=O)c(C(C)=O)c(C)n2[O-]`, the Potency is reported as inconclusive: 89.1 µM [inhibitor, single point].
`CCOc1ccc(C(=O)c2cn(CC(=O)Nc3ccc4c(c3)OCO4)c3ccc(OC)cc3c2=O)cc1` was tested, and the Potency was inconclusive: 89.1 µM [inhibitor, single point].
`COc1ccc(OCC(=O)Nc2ccc(S(=O)(=O)Nc3cc(C)on3)cc2)cc1` was tested, and the Potency was inconclusive: 56.2 µM [inhibitor, partial curve, poor fit].
For `COc1cccc(N2CCN(C(=O)C3CCCN(S(=O)(=O)c4cccc5nsnc45)C3)CC2)c1` (stereo not given), the Potency was inconclusive: 22.4 µM [inhibitor, partial curve, poor fit].
For `Nc1nc(COC(=O)c2ccc3c(c2)OCCO3)nc(Nc2ccccc2)n1`, the Potency was inconclusive: 50.1 µM [inhibitor, partial curve, poor fit].
For `O=C(COc1ccccc1/C=C1\SC(=S)NC1=O)Nc1ccc(F)cc1`, the Potency was inconclusive: 17.8 µM [inhibitor, partial curve, poor fit].
